Measurements: the supplement of paper PMC3334620
Over roughly 33,000 sequences, “E-score (-0.5 to 0.5)” has its median near -0.012; the highest 2% begin near 0.27. The list shows a part of the results.

Target: T1, Vhr1 (UniProt P40522)
T1 sequence: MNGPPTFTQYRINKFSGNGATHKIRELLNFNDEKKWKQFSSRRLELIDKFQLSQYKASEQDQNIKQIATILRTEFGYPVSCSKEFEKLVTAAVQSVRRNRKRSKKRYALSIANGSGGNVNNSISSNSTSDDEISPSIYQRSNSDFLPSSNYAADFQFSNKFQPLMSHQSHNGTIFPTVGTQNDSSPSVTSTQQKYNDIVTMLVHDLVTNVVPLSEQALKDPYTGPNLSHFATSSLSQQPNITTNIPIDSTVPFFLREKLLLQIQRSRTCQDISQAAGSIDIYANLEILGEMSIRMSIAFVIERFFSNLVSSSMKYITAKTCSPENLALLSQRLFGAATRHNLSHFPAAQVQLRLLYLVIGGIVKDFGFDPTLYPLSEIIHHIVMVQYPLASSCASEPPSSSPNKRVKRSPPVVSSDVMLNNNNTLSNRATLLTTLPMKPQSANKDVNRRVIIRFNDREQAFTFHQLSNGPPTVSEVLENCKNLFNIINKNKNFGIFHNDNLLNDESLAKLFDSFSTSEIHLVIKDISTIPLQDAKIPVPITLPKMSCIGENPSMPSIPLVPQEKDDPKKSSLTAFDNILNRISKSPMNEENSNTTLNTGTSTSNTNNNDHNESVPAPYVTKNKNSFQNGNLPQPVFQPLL
Assay: PBM E-score (8-mer binding enrichment) (E-score (-0.5 to 0.5)); higher = stronger / more preferred TF binding; most listed sequences are background and not binding sites
Details: protein concentration: 200 nM; construct: GST-full length
In short: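 The E-score, a modified Wilcoxon-Mann-Whitney statistic, was computed by the Universal PBM Analysis Suite for every ungapped eight-base word pooled with its reverse complement. Scans behind it were normalised with masliner after bound GST-tagged yeast transcription factors were detected with fluorescent anti-GST. The proteins, at about 100-200 nM, had been applied to universal all-10-mer Agilent arrays made double-stranded by primer extension.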

Sequence	PBM E-score
CATACGAC	0.0203
CATTAGGC	-0.189
AGTTCAAC	0.131
CATGCCGA	0.214
AGTCTACA	-0.125
CAACTGTG	-0.151
AGGGGGCG	-0.0762
AGACCTAA	-0.0314
CAATCCCC	0.0337
TCTAGAAA	-0.272
TAATACGA	-0.0262
CTCTATAC	-0.164
AGCGCTAA	-0.0398
AAGTTAAG	-0.373
ATTAGTGG	0.141
ACCGTTTA	-0.0693
ACCTCAGT	0.0616
AGTGAGTC	0.466
AAGCGTTA	-0.16
ATTTAGAG	0.0088
GCCCTTCC	-0.294
CAATTTGC	-0.192
GCTGGTCA	-0.107
ATATGCAG	-0.0948
CCTCAAAG	-0.165

Sequence	PBM E-score
AGCAGTGA	0.167
AGGGTCGA	0.158
AACTGTCT	0.0639
CCGTTTAG	-0.0628
ATGGTGGA	-0.00384
GCAAGATA	0.00244
CCTGTGGA	-0.166
GTGCTGGA	-0.102
CTAGATGA	-0.0565
CAGGCACA	-0.0257
AGAGGTGC	-0.158
GAGGTTTA	-0.0416
GTAATAAC	-0.0132
ACGCTAAC	-0.0278
GCGACCGC	0.0978
ATGCCGGC	-0.153
GACGCCAC	-0.0198
ATCGGACC	0.0111
GTAGCAGA	-0.131
CCCCCAAC	-0.181
ACCCCGCG	0.0106
AAGGAAGC	-0.153
TAGAACCA	-0.0903
ACGTCGAT	-0.0387
ACTAACTC	0.03

Sequence	PBM E-score
ACTTGTCT	-0.106
ATTCTCCA	-0.0263
AGACGGGA	0.107
CCCCCACA	-0.28
CCACGCCC	-0.108
ACCAATCA	0.147
GTCTTTCA	-0.0537
ACAGACAT	0.168
ACGTTTGC	-0.0799
TACCATGA	0.0938
AGGGCCCG	0.0628
CTGATAAG	-0.0476
CAATTAGC	-0.00377
CCGTCATA	0.139
ACACTTTA	-0.0402
ATCTTTCG	-0.0102
AACAGTGG	0.104
CCTACCCC	-0.155
GATAGTAC	0.199
CTGCCGAC	0.209
ACATAAAA	-0.0866
AAATCAGA	0.0175
CCCCGGAA	-0.271
CAACCTGG	0.182
GCGAAGTA	-0.0716

Sequence	PBM E-score
ACCGGGGC	0.117
CACGGTGG	0.273
ACGGTGAC	0.165
ATCGACAC	0.138
CTTCACAA	-0.282
ACAATGAG	0.122
CCACGCTC	-0.142
AAGCGGAC	-0.0493
ATTCGCTG	0.154
AACCGCTT	-0.0717
ATCGGGAG	0.0461
GACCGCGC	0.0329
CGAGAAAC	-0.104
TCTCTCCA	-0.0643
TCCCAGAA	-0.214
CCTTACTA	-0.155
ACACTGTA	0.19
ATTATTTA	0.0549
ATATTCGA	-0.0743
ACGTGTAA	0.145
AAGCGCAG	-0.0586
CAAGGACC	-0.0343
ATCCTCCC	-0.107
AGGCGGGG	0.121
CATTACCA	0.0557

Sequence	PBM E-score
AATCAATC	0.186
CTCCGTTA	-0.0185
GATGTTAA	0.0387
ACAGATAA	-0.07
AGCGTACC	-0.0102
CCCGAATC	0.145
TCGCCTCA	-0.202
GTATGCGA	0.117
CCTCCCCC	-0.19
CATCGAGG	-0.0476
AGTGCCCC	-0.109
GTGCTCAA	-0.0756
ACCCACTA	0.133
TAGGGTAA	0.0987
ACGTGAAA	-0.0882
CGCCATTC	0.0956
ATCATGAT	0.245
ACGTCAAG	-0.203
AAGGCACA	-0.0305
GGTCATAA	-0.0598
CCGTGCAC	-0.182
AAATGCCA	-0.305
GGCGCGAC	0.275
AGAAAGTA	-0.025
CACTTCTA	-0.121

Sequence	PBM E-score
CTGATCAC	0.0343
AAGAACGA	-0.165
CATCGGGG	-0.00022
AAAGGCTG	-0.117
CGCACTTA	0.0925
TCGGTACA	0.104
ACGTCAGG	-0.215
AAAAGCCA	-0.0583
CCCGCAGG	-0.00271
TAGTACAA	0.151
CCCGTGAG	0.0386
CATGGTAC	0.197
GGATGGGA	0.233
AGGTCCTA	-0.158
GCTTGGTA	0.106
CAGATGCC	-0.0597
CCATTCAG	-0.0511
GACGGGGA	0.0241
CGCGGGCC	0.187
CGTGGAAC	0.0558
ATTGTGGA	0.121
ACGTGAAC	-0.129
GCTTTGAA	-0.252
TGATCCCA	0.0559
ATGTAGTC	0.286

Sequence	PBM E-score
CACTACAG	0.0781
GGTAACCA	0.0769
CGGAGTAC	0.0632
CTGTGAGC	-0.0302
ATCTCGAA	-0.23
ATTTCTGG	-0.131
GGAGGATA	-0.05
ATAATAGC	-0.0587
CAACGCAC	0.0171
CTAGTCTC	-0.0355
TACACGTA	0.0745
AATGAGGT	-0.113
CCCTACAC	0.154
CGTCATCA	0.0722
ATTAATAA	0.143
ATCTCCGG	0.055
ATCCTATG	0.0419
AACGAGCA	-0.0591
GCTCCAAA	-0.165
AATAGTCA	0.344
AGCAGGCC	-0.0617
AACGTCTC	0.0206
CTACGCTA	-0.192
ATTTAAGG	-0.155
TGAGGGAA	-0.0711

Sequence	PBM E-score
AATCATGG	0.387
AACCCTAG	-0.0365
TGTCGCAA	-0.0761
GTCCGATA	-0.0706
CACGGACC	0.0377
AAAACAGC	-0.0424
CCCCGGTA	-0.0301
CACCCCCC	-0.0808
AGTATCCG	0.148
ATATCCGA	0.211
ACGGAGTC	0.408
ATTGTGGC	0.0697
AAACGACC	-0.0187
AAACCTCA	0.09
CGTCCAGC	-0.199
GCATGAGC	-0.004
ACACAGGA	0.18
CCGTAGTC	0.241
GAATGAGC	-0.0284
GAGCTGGC	0.114
GAGGACGC	-0.123
AAGGATCG	0.0507
CCCACAAG	-0.0259
CAAGGAGC	-0.059
CATGACTA	0.458

Sequence	PBM E-score
AATTAATG	0.0751
ACCTATCC	0.00922
CACTTAGC	-0.0315
ACTTGTGG	0.127
CCTGTTCA	-0.108
AAATTTTC	-0.42
CAAACTTC	0.0398
AGGTACTA	0.135
CCCTGGGC	-0.0164
CCGGGGCC	0.0664
CCCCCCCC	-0.252
TCGAGACA	0.0302
ATTCCTGA	0.141
AAATGACA	-0.00611
CTGCTACA	0.00558
CGCGGAGA	0.183
CCGTGTCA	0.0507
TCGACTAA	0.207
GCAATAGA	-0.171
AACACGTT	-0.158
CTCCTTTA	-0.33
ATGCTATA	-0.00334
AAGAAATA	-0.178
ATCACAAC	0.00509
TCTGCAAA	-0.109

Sequence	PBM E-score
AGAGCCTA	-0.236
AGCGCCGA	-0.123
GTACATAC	0.119
GAAAAAGC	-0.276
ACGAAAAG	-0.0432
CAACTGAC	-0.00114
GCTCCACA	-0.104
CGGTGAAA	-0.182
AAGAAGAT	-0.0562
GGGGCACC	-0.0787
ATACAATG	0.154
AATGGGAA	-0.315
AACATGGC	-0.0468
ATGAGTAA	0.256
AGAAAGTG	-0.0964
ATTGCATC	0.0318
CTTTTCCC	-0.231
AAAGTAAA	-0.173
ATTTGCTG	0.075
TCGCCAAA	-0.149
CCTCATTA	-0.111
AATATCAC	0.0106
AAGTCAAC	-0.00442
CAGCGACC	0.029
AGTTCTCG	-0.096

Sequence	PBM E-score
AAAGGCAT	-0.177
AGCTGAGC	-0.144
CTGCGATC	0.12
GGAGGCGA	-0.0657
AATCCTTG	0.0138
GAGCCCCC	-0.194
CCTTGCTA	0.0829
CAAGCGGA	0.0103
ACGGCTCT	-0.185
CAATAAGA	-0.0206
ATCCCCGA	-0.0525
ATACTTCA	-0.166
ATCTTAAA	-0.0666
CGTCTGAC	0.00249
CTAGTGAG	0.0749
CTTAACTA	-0.118
ATCTTAAG	-0.155
ATCAGAAA	-0.08
AACGCCCC	-0.114
ATTCTCAG	-0.0748
AATAGGGC	-0.124
ACTTTCAT	-0.25
CAGGTGGA	-0.149
TGTAACAA	0.0422
AGAAACCA	0.224

Sequence	PBM E-score
GGGGAAAA	-0.247
ATCCTAGC	0.104
GTTCTACA	-0.0498
CGGCTGCA	-0.0624
CAGAACGA	0.0335
CATAGGAC	-0.0393
AGATCGCC	0.067
GCTACGTA	-0.0244
ACTTGCAT	0.182
ATTGCAGC	0.0423
ACAGCGGG	-0.00937
CCCATACA	0.119
ACCTAAAC	0.0506
ATGCCTGG	-0.0184
ACCCGTGC	-0.0423
CCTGCAGG	-0.021
CAAGATTG	-0.0519
CATAGTCA	0.37
AGAAGAGG	-0.188
ATAACTAC	0.044
CACCCCTC	0.104
CGAGTCTC	0.0296
CGACCTAA	0.0404
GTTTATAA	-0.168
CTTTATTC	-0.0969

Sequence	PBM E-score
CCCTGGCC	-0.0793
GCCACCGC	0.0472
ATCGGTTA	0.206
GAAGAAAA	-0.221
GCACTCCC	-0.0028
ATCGAGAT	-0.0629
CGCCTTGA	-0.0352
TCGGTCAA	-0.0603
CGTCGCTA	-0.0463
AAAGACCG	-0.139
GAAACTGA	-0.118
CCGACCTA	0.14
AATTTAGC	-0.143
ACGCGACG	0.064
CACTACAA	0.194
AAAGTTCT	-0.274
ACGGCGAT	0.085
ACATAAGT	0.113
GATTAAGC	0.0661
AAACTTCA	-0.239
CTCCCCGA	-0.116
CAAATCTG	0.0928
CACTATGG	-0.039
CTTTACGC	-0.0788
CAATCCAG	-0.0547

Sequence	PBM E-score
CAAAGCGG	-0.197
AGCGTCAT	0.0249
AGAGTGTG	0.14
ACAGTTAG	-0.0254
ACACATAG	0.102
GACTCGTA	0.327
GAGCCTAA	-0.212
GAAGGCGC	-0.173
ATAATTCA	0.0282
CGTTAACG	-0.102
CAAGAACC	-0.00828
TGCCGTAA	-0.243
TCTGACAA	-0.0506
CCGTTCCA	-0.0911
CGCAACTA	0.0783
AGCTATTA	0.0902
GAGAGAAC	0.0206
ACTGGAAT	0.12
CGCAGGGC	0.0378
